Source: a collection of fitness landscapes (doi:10.1038/s41467-024-54723-y)
In all, about 18,000 sequences were measured (“TetR repression strength (sort-seq, GFP reporter)”: median about 0.23, highest 2% from about 0.68 on). The list shows a part of the results.

biological target: TetR (class B, Tn10) (UniProt P04483); test: TetR repression strength (sort-seq, GFP reporter) (relative to tetO2 = 1); higher = stronger repression; settings: E. coli
Method in brief: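 Repression strength was calculated by subtracting the read-weighted mean bin from the top bin index plus one and dividing by the unaltered operator's value. The plasmid library was low-copy in E. coli SIG10-MAX, with eight randomized operator positions between a constitutive promoter and sfGFP and constitutive TetR. Cultures grew 5 h at 37 °C in LB containing 50 µg/mL chloramphenicol before 10^6 cells were sorted by FACS into 13 fluorescence bins, each sequenced on Illumina. Three independent transformations were averaged for members having ≥30 reads in all replicates and a CV ≤0.5.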

UniProt P04483, sequence (P04483 whole entry): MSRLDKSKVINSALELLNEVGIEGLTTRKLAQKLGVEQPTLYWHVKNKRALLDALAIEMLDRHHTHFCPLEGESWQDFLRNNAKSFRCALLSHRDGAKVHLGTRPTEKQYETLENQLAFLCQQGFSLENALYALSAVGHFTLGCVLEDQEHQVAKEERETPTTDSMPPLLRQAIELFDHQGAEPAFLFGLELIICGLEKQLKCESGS

Row | Sequence | TetR repression strength
1 | TCCCCGCGAGTTTGGGAGA | 0
2 | TCCCTTCAAGTATAGGAGA | 0.206
3 | TCCCCAGGAGTAGGGGAGA | 0.114
4 | TCCCTGGAAGTTGGTGAGA | 0.0653
5 | TCCCCGACAGTAATCGAGA | 0.0806
6 | TCCCTTTGAGTCTACGAGA | 0.427
7 | TCCCTGTAAGTTGGGGAGA | 0.333
8 | TCCCCAAGAGTCAACGAGA | 0.359
9 | TCCCTGTTAGTACGTGAGA | 0
10 | TCCCAATTAGTCCCGGAGA | 0.165
11 | TCCCTCTTAGTACGTGAGA | 0.25
12 | TCCCTTCCAGTTTTGGAGA | 0.364
13 | TCCCTCGTAGTGGGTGAGA | 0.815
14 | TCCCGGTGAGTGACCGAGA | 0.207
15 | TCCCCATCAGTGGTAGAGA | 0.417
16 | TCCCGTGCAGTATGTGAGA | 0.207
17 | TCCCGTGCAGTGCAGGAGA | 0.513
18 | TCCCGGAGAGTGTGGGAGA | 0.358
19 | TCCCCTTCAGTATTTGAGA | 0.269

Row | Sequence | TetR repression strength
20 | TCCCGTAAAGTAGCAGAGA | 0.185
21 | TCCCTATGAGTTCCCGAGA | 0.289
22 | TCCCTGACAGTGTGAGAGA | 0.297
23 | TCCCATTCAGTGGGTGAGA | 0.278
24 | TCCCAACTAGTGAAAGAGA | 0.386
25 | TCCCATGAAGTTGCTGAGA | 0.107
26 | TCCCTTTAAGTCCAAGAGA | 0.221
27 | TCCCAACCAGTCAACGAGA | 0.251
28 | TCCCCGTCAGTGCGGGAGA | 0.0283
29 | TCCCGTAGAGTTGGGGAGA | 0.214
30 | TCCCTTTGAGTTATCGAGA | 0.384
31 | TCCCATTGAGTTTTCGAGA | 0.275
32 | TCCCACAAAGTGCGGGAGA | 0.453
33 | TCCCGGGCAGTGAAGGAGA | 0.251
34 | TCCCCAAGAGTGGGAGAGA | 0.265
35 | TCCCTTCAAGTCGGCGAGA | 0.361
36 | TCCCACACAGTCGGAGAGA | 0.333
37 | TCCCGAATAGTAAATGAGA | 0.247
38 | TCCCGATAAGTGGTCGAGA | 0.18

Row | Sequence | TetR repression strength
39 | TCCCCTAGAGTGTGGGAGA | 0.00482
40 | TCCCAGTAAGTTGCAGAGA | 0.235
41 | TCCCAGGAAGTCGAGGAGA | 0.116
42 | TCCCCGTAAGTAAACGAGA | 0.197
43 | TCCCGAACAGTCAATGAGA | 0.347
44 | TCCCCGGCAGTCAGCGAGA | 0.269
45 | TCCCGTGCAGTAGGAGAGA | 0.157
46 | TCCCAACTAGTAGTTGAGA | 0.358
47 | TCCCGGGAAGTGTAAGAGA | 0.0587
48 | TCCCTAAGAGTTCGGGAGA | 0.65
49 | TCCCGGCTAGTTCGCGAGA | 0.375
50 | TCCCCGCTAGTTGAAGAGA | 0.321
51 | TCCCAACTAGTTCATGAGA | 0.267
52 | TCCCGCCGAGTGAGTGAGA | 0.312
53 | TCCCGGACAGTAGTTGAGA | 0.129
54 | TCCCAGGGAGTGTTAGAGA | 0.263
55 | TCCCACTGAGTGGTCGAGA | 0.438
56 | TCCCGGGTAGTGTCCGAGA | 0.209
